Among the data in patent publication US20170051059A1 (Bristol-Myers Squibb, published 2017) are Kd values, retold here.

In this experiment the target is T1, biotinylated IZ-hCD40L (biot-IZ-hCD40L) (human, UniProt P29965 113-261, biotinylated).
T1 construct: Biotinylated version of IZ-hCD40L, captured on a streptavidin SPR chip; not shown: N-terminal isoleucine zipper motif
T1 sequence (looked up): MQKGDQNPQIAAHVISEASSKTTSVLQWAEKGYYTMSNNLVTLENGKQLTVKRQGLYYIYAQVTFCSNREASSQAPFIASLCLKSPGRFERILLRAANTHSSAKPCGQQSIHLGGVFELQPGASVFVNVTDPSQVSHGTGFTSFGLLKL
Briefly: SPR, BMS-986004 on a biot-IZ-hCD40L surface, 1:1 Langmuir fit; avidity-influenced.

B1: BMS-986004 (Fc fusion)
chain: EVQLLESGGGLVQPGGSLRLSCAASGFTFNWELMGWARQAPGKGLEWVSGIEGPGDVTYYADSVKGRFTISRDNSKNTLYLQMNSLRAEDTAVYYCVKVGKDAKSDYRGQGTLVTVSSAST[letters of human IgG1 Fc with changes left out]
notes: also called BMS2h-572-633-CT-L2; 2h-572-633-CT-L2
For the molecule B1, the Kd was less than 1 nM.
